Results: PubChem BioAssay AID1240 (Sanford-Burnham Center for Chemical Genomics, 2008)
Out of some 50,000 compounds screened, about 800 (1.6%) showed an effect of 50% or more. The list shows a part of the results.

biological target: Bcl-2-like protein 10 (Homo sapiens) (UniProt Q9HD36); experiment: TR3 peptide-Bcl-B binding displacers, biochemical primary FP assay, phenotype converters (AID 1240); conditions: GST-Bcl-B / FITC-TR3 peptide fluorescence polarization; stronger effect = higher value; compound at 3.75 mg/L;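 also: 0% = Bcl-B with tracer peptide and DMSO and 100% = tracer peptide lacking Bcl-B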
Sequence of UniProt Q9HD36 (Q9HD36 whole entry, looked up): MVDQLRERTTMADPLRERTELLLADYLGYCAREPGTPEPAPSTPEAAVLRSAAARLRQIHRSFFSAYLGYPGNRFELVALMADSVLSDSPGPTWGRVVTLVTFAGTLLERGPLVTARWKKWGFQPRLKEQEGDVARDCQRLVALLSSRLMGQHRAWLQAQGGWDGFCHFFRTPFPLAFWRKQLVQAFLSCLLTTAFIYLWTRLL

| SMILES | displacement [%] |
| --- | --- |
| COc1ccc(NS(=O)(=O)c2ccc(OC)c(OC)c2)cc1OC | 8.6 |
| Cc1cc(C)c(C(CC(=NNC(N)=O)c2cccs2)C(C#N)C#N)c(C)c1 (centres undefined) | 4.4 |
| O=C(CSCc1ccccc1)Nc1ccc(Br)cc1C(=O)O | -2.8 |
| O=C(c1cnn2c(-c3ccccc3)cc(-c3ccccc3)nc12)N1CCSCC1 | 11.8 |
| O=C(O)c1ccc2nc3cc(N4CCOCC4)c(N4CCOCC4)cc3nc2c1 | 31 |
| Clc1ccc(CSc2nnc(-c3ccccc3)o2)c(Cl)c1 | -8.9 |
| O=C(Nc1cccc2c1C(=O)c1ccccc1C2=O)c1ccc(S(=O)(=O)N2CCOCC2)cc1 | 27.7 |
| O=Cc1ccc(OCc2ccccc2)cc1 | 3.2 |
| COc1cc(CN2CCN(C3CCCC3)CC2)cc(OC)c1OC | 2.3 |
| C=CCc1cccc(/C=N/NC(=O)c2cc(-c3ccccc3)n[nH]2)c1O | -3.3 |
| CCOC(=O)c1sc2nccc3c2c1N=CN3c1ccccc1 | -2.1 |
| CCOC(=O)c1c(-c2ccc(OCC)cc2)csc1N | 9.4 |
| Cc1nc2sc3c(c2c(=O)n1-n1cccc1)CCCC3 | 15.1 |
| CN1C2=NC(=O)/C(=C/c3ccc([N+](=O)[O-])s3)N2c2ccccc21 | -5.9 |
| Cc1ccc(NC(=O)/C=C/C(=O)c2ccccc2)cc1 | 54.6 |
| CC(C)(C)OC(=O)N1N=C(c2ccc(Cl)cc2)CC1(O)C(F)(F)F (centres undefined) | 7.4 |
| O=C(/C=C/c1ccc2c(c1)OCO2)NC1CC2CCC1C2 (centres undefined) | -4.5 |
| Cc1sc2nc(SCC(=O)NCCO)[nH]c(=O)c2c1C | 0.4 |
| COC(=O)c1ccccc1NC(=O)CN(c1cccc(C(F)(F)F)c1)S(C)(=O)=O | -1.5 |
| CC1=C(C(=O)OCCOc2ccccc2)C(c2ccc(F)cc2)C2=C(CC(C)(C)CC2=O)N1 (centres undefined) | -9 |
| Cc1nc(Nc2nc(C)c3ccccc3n2)[nH]c(=O)c1C | -21.7 |
| COc1ccc(C2CC(=O)C3=C(C2)Nc2ccccc2NC3c2cccc(O)c2)cc1 (centres undefined) | -4.1 |

| SMILES | displacement [%] |
| --- | --- |
| Cc1cc2nc(-c3ccc(NC(=O)c4ccc5c(c4)OCCO5)cc3O)oc2cc1C | 21.5 |
| CCP(=O)(c1ccccc1)C(C)(C)O (centres undefined) | 3 |
| N/C(=N\OC(=O)C(c1ccccc1)c1ccccc1)c1ccccc1 | -7.2 |
| CCN(CC)CCCCCOc1cccc(Cl)c1 | 4.8 |
| COc1ccccc1C(=O)Nc1nc(-c2ccccc2)c(C)s1 | -3 |
| Cc1nc(C)c(-c2csc(Nc3cccc(C(=O)O)c3)n2)s1 | 3.5 |
| Cc1cccc(C)c1NC(=O)c1ccc(N(C)S(=O)(=O)c2ccccc2)cc1 | -1.2 |
| O=C(Nc1ccc(N2CCOCC2)cc1)c1cc(Br)ccc1Cl | 4.5 |
| O=C(NC1CCCCC1)N(Cc1ccccc1)Cc1ccco1 | -9.3 |
| CCOC(=O)c1c(NC(=O)c2ccccc2Cl)sc2c1CCN(C(=O)OCC)C2 | 1.4 |
| COc1ccc(OCC(=O)N2c3ccccc3CCc3ccccc32)cc1 | 12.1 |
| CN(C)c1ccc(/C=C/c2[nH]c(=O)[nH]c(=O)c2[N+](=O)[O-])cc1 | -4.1 |
| O=S(CC(O)COc1ccc(Cl)cc1)c1ccccn1 (centres undefined) | 4.8 |
| O=C(O)C(Cc1ccccc1)N1C(=O)/C(=C/c2cccc(Br)c2)SC1=S (centres undefined) | 16.6 |
| CC(NC(=O)c1ccc(F)cc1)C1CC1 (centres undefined) | 4.6 |
| O=C1CC(c2ccccc2)CC2=C1C(c1ccc(Cl)c([N+](=O)[O-])c1)Nc1ccccc1N2 (centres undefined) | -3.7 |
| CC(=O)N1c2ccccc2NC2=C(C(=O)CC(C)(C)C2)C1CC1CC=C(C)C1(C)C (centres undefined) | 2.5 |
| O=C(Nc1nc2ccccc2n1Cc1ccccc1)c1ccccc1 | -10.2 |
| CCN(CC)c1ccc(C2Nc3ccccc3NC3=C2C(=O)CC(c2ccccc2)C3)cc1 (centres undefined) | -4 |
| COc1cc(OC)cc(C(=O)Nc2c(C)cc(Br)cc2C)c1 | 12.1 |
| CCOc1ccc(NC(=O)C2=C(C)NC(=O)NC2c2ccc(C)cc2)cc1 (centres undefined) | 1 |
| COc1ccc(CNC(=O)c2cnn3c(C(F)(F)F)cc(-c4ccco4)nc23)cc1 | 3.7 |

| SMILES | displacement [%] |
| --- | --- |
| COc1ccc(OC)c(/C=C2/SC(=S)N(C)C2=O)c1 | -4.8 |
| CCC(=O)Nc1ccc(NC(=O)c2ccc3ccccc3c2)cc1 | 8.5 |
| CC1(CC(=O)N/N=C/c2cc(Br)c(O)cc2O)OCCO1 | -13.2 |
| O=C(Nc1sc2c(c1C(=O)Nc1ccccc1)CCC2)c1ccc([N+](=O)[O-])cc1 | -0.4 |
| O=C(COc1ccc(Cl)cc1)NNC(=O)C(c1ccccc1)c1ccccc1 | -4.8 |
| COc1ccccc1NC(=O)c1cccc2c(Br)cccc12 | -5.4 |
| CCN(CC)c1ccc(/C=C2\C(=O)c3ccccc3C(=O)\C2=C(/O)c2ccccc2)cc1 | 8 |
| CCOC(=O)c1c(NC(=O)C2(C)CC2(Br)Br)sc(C)c1-c1ccccc1 (centres undefined) | -1.9 |
| C=CCOc1ccc(/C=C2\C(=O)NC(C)=C2C(=O)OC)cc1 | 14.5 |
| COc1ccc(Cl)cc1N(CC(=O)N1CCC(C)CC1)S(=O)(=O)c1ccc(C)c([N+](=O)[O-])c1 | -4.2 |
| O=C1C(c2ccccc2)=C(O)c2ccccc21 | 18.4 |
| COC(=O)CN1C(=O)/C(=C\c2ccc(C)cc2)SC1=S | 11.8 |
| Fc1cccc(CN2CCN(C3CCCC3)CC2)c1 | -12.6 |
| CC1(C)Cc2c(sc3nc(Nc4ccccc4)n(N)c(=O)c23)CO1 | -6.9 |
| O=C1S/C(=C/c2ccccc2)C(=O)N1CNc1ccc(I)cc1 | -27.3 |
| COc1ccc(-n2cnnn2)c(OC)c1 | -3.3 |
| CN1C(=O)NC(=O)/C(=C\c2cc(Cl)c(OCc3ccc(F)cc3)c(Cl)c2)C1=O | -8.8 |
| O=C1N=C(N2CCCC2)S/C1=C\c1cccc(Br)c1 | 2.1 |
| CC1CC(Nc2ccccc2)c2ccccc2N1C(=O)/C=C/c1ccco1 (centres undefined) | -4 |
| Cc1nc2ccccc2n1CC(O)COc1ccc(Br)cc1 (centres undefined) | -14.3 |
| Cc1cc(C)nc(/N=C(\N)Nc2ccc(Cl)cc2C(=O)c2ccccc2)n1 | 10.3 |
| O=C1C(=O)N(Cc2cccnc2)C(c2ccccc2)/C1=C(\O)c1ccccc1 (centres undefined) | -14.2 |

| SMILES | displacement [%] |
| --- | --- |
| O=C(Cc1ccc([N+](=O)[O-])cc1)NNC(=O)c1ccccc1 | -7.2 |
| CC(C)(C)C1(O)CC(C(=O)O)(C(C)(C)C)OC1=O (centres undefined) | 7.4 |
| COc1cccc(NC(=O)CN(CCc2ccccc2)S(=O)(=O)c2ccccc2)c1 | -0.9 |
| COC(=O)c1ccc(NC(=O)c2ccc(C(=O)Nc3ccc(C(=O)OC)cc3)cc2)cc1 | 1.2 |
| NC(=O)c1ccccc1N=Cc1cc([N+](=O)[O-])ccc1O | -11 |
| O=C1/C(=C/c2ccc(-c3cc(Cl)ccc3Cl)o2)SC(=S)N1Cc1ccco1 | 14.1 |
| O=C(O)CCCCCN1C(=O)/C(=C/c2ccc(O)c(O)c2)SC1=S | -107 |
| CCc1cc(=O)oc2cc(OCc3cccc(C)c3)ccc12 | 2.5 |
| O=[N+]([O-])c1cc([N+](=O)[O-])c2cccnc2c1Sc1nc2ccccc2s1 | 2.8 |
| Cc1ccc(NC(=O)COc2ccc3ccccc3c2)cc1Cl | -13.1 |
| CC(C)c1ccc(OCCOc2ncnc3ccccc23)cc1 | 15 |
| O=C(Nc1ccc2ccccc2c1)c1ccc2c(c1)C(=O)N(N1C(=O)c3ccccc3C1=O)C2=O | 14.6 |
| O=C1C=CC(=O)N1c1ccc([N+](=O)[O-])cc1Br | 9.4 |
| COC(=O)c1c(-c2cccc(C)c2)csc1N | 2.8 |
| O=[N+]([O-])c1ccc(COc2ccccc2/C=N/Nc2nc3ccccc3s2)cc1 | -2.1 |
| COC(=O)c1ccc(C(=O)Nc2cc(Cl)ccc2Cl)cc1NC(=O)c1ccccc1C | 5.6 |
| CC1(C)CC(Cc2ccccc2)(C(CN)CO)CCO1 (centres undefined) | -6.7 |
| CCc1ccc2oc(-c3cccc(NC(=O)c4cccc(C)c4)c3)nc2c1 | -1.3 |
| Cc1cccc(OCCCN2CCCC2)c1 | -6.5 |
| O=C(N/N=C/c1ccc[nH]1)c1ccccn1 | -11.5 |
| Cc1cccc(NC(=O)CCCN2C(=O)c3cccc4cccc(c34)C2=O)n1 | 0.6 |
| Nc1nnc(/C=C/c2ccccc2Cl)s1 | 0.8 |

| SMILES | displacement [%] |
| --- | --- |
| CCOc1c(Br)cc(/C=C2/C(=O)N(c3ccc(Cl)c(C(=O)O)c3)N=C2C)cc1OC | 10.1 |
| O=C(NC=C(Cl)Cl)c1ccc(Cl)cc1 | 13.5 |
| Cc1c(NC(=O)c2ccc(I)o2)cccc1-c1nc2ccccc2s1 | 15.4 |
| OC(COc1ccc(C23CC4CC(CC(C4)C2)C3)cc1)CN1CCN(c2ccccn2)CC1 (centres undefined) | -5.7 |
| CC(C)C1=NN2C(=N)/C(=C/c3ccccc3OCc3ccc(F)cc3)C(=O)N=C2S1 | -6.7 |
| O=C(Nc1sc2c(c1C(=O)N1CCCCC1)CCCC2)c1ccccc1F | -4.7 |
| C[n+]1cccc(C(=O)NCCO)c1 | 1.6 |
| CCOc1ccc(C(=O)Nc2cc(Cl)cc(Cl)c2)cc1Br | 12.9 |
| CC1(C)C(=O)N(Cc2ccc([N+](=O)[O-])cc2)c2ccccc2N1C(=O)c1ccc(F)cc1 | -1 |
| O=C(Nc1ccc(Nc2ccccc2)cc1)c1cccc2ccccc12 | 14.1 |
| O=C(Nc1c(C(=O)NCc2ccco2)cnn1-c1ccccc1)c1cccc(F)c1 | 1.4 |
| O=[N+]([O-])c1ccc(OCCN2CCCCC2)cc1 | 6.5 |
| CCOC(=O)C1=C(O)/C(=C/c2ccc(Br)cc2)SC1=Nc1ccc([N+](=O)[O-])cc1 | 15 |
| COc1ccc(-n2c(C)c([N+](=O)[O-])c3ccc(OC(C)=O)c(COC(C)=O)c32)cc1 | -1.1 |
| CC(/C=N/NC(=O)C1CC1)c1ccccc1 (centres undefined) | 7.7 |
| COc1cccc(/C=C/c2cc(C(F)(F)F)[nH]c(=O)n2)c1OC | 121 |
| COc1ccc(/C=C(\NC(=O)c2ccccc2)C(=O)N/N=C/c2ccncc2)cc1 | -0.2 |
| COC(=O)c1cc(NC(=O)c2ccc(-c3ccc(Cl)cc3)o2)cc(C(=O)OC)c1 | 20 |
| CC(C)CN1C(=O)c2ccc(C(=O)NN3C(=O)c4ccccc4C3=O)cc2C1=O | -19.4 |
| Cc1ccc2nc(-c3cc(N)ccc3Cl)oc2c1 | -4.5 |
| O=C1C2C3C=CC(C2C(=O)N1Cc1ccccc1)C1C(=O)N(Cc2ccccc2)C(=O)C31 (centres undefined) | 24.4 |
